Results as given in PubChem BioAssay AID624417 (National Center for Advancing Translational Sciences (NCATS), 2012).
About 6,400 (1.6%) of roughly 410,000 compounds were called active. Inconclusive means that the source gave no clear call. Such entries were picked first, then a sample of the others. The call rests on the fitted dose curve; in most records, active means well fitted inhibition curve with a large enough effect; inconclusive means small, poorly fitted or top-dose-only effect; inactive means no such curve, though single readings can be large or run the other way. Where the call is inconclusive, the potency comes from a doubtful curve fit.

What follows are molecules tested against Glucagon-like peptide 1 receptor (Homo sapiens) (UniProt P43220) (assay: qHTS of GLP-1 Receptor Inverse Agonists (Inhibition Mode)). Conditions: HEK293 GLP-1R CRE-luciferase, luminescence, 24 h, GLP-1R form is constitutively active; activity change, negative = inhibition: at 38.3 µM (top of the series) unless noted.
How it was run: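 qHTS in 1536-well format: reporter HEK293 cells expressing constitutive GLP-1R activity in DMEM + 10% Nu serum, 24 hr with compounds at 37 deg C, luminescence read after 12 min with detection reagent.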
Further: nearly all actives have a fitted effect of over 55% in size.
On the % scale 0 is the no-effect control and ±100 the full control effect; potency means the concentration at half of the fitted maximal effect; tags describe the fitted curve by direction and shape.

UniProt P43220, sequence (P43220 whole entry, looked up): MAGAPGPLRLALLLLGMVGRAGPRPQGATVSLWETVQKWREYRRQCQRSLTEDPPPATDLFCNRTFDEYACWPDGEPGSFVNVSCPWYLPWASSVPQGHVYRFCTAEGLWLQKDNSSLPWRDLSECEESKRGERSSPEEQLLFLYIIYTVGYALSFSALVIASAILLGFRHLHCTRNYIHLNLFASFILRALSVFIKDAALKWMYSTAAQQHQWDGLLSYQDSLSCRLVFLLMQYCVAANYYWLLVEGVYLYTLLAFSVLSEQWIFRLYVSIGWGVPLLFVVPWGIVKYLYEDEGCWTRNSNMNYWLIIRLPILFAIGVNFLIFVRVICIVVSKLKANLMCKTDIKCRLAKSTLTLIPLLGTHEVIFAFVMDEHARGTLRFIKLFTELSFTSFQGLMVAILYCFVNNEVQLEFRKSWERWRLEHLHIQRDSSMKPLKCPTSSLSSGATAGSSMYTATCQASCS

Potency, active:
O=C(c1ccc2nc(N3CCCCC3)sc2c1)N1CCN(Cc2ccc3c(c2)OCO3)CC1 10 µM
CCOCc1cc(CN2CCN(c3ccccc3OC)CC2)c(O)c2ncccc12 5.01 µM

Potency, inconclusive:
O=C(COc1ccccc1Cl)Nc1nc(-c2cccs2)cs1 15.8 µM [inhibitor, single point]
CCOc1ccc(NC(=O)CN(C)C(=O)COc2cccc(CC)c2)cc1OCC 10 µM [inhibitor, partial curve, poor fit]
C/C(=N\Nc1cc(C(F)(F)F)ccc1Cl)c1ccccc1O 12.6 µM [inhibitor, single point]
CCNC(=S)N1CCN(S(=O)(=O)c2ccc(C)cc2)CC1 28.2 µM [inhibitor, single point]
CC(C)(C)N(Cc1ccccc1)C(=O)COC(=O)C1CC(=O)N(Cc2ccccc2)C1 (centres undefined) 12.6 µM [inhibitor, single point]
Cc1cccc(C)c1NC(=O)C(=O)NCC1CCCN1S(=O)(=O)c1ccccc1 (centres undefined) 10 µM [inhibitor, single point]
Cn1cccc1/C=N\NC(=O)Cc1ccc(Br)c2ccccc12 11.2 µM [inhibitor, single point]
COc1ccc(-n2ncc3c2CC(C)(C)CC3NC(=O)c2c(C)cc(=O)oc2C)cc1 (centres undefined) 28.2 µM [inhibitor, single point]
FC(F)(F)c1cccc(Cc2noc(CN3CCCC3)n2)c1 28.2 µM [inhibitor, single point]
C=CCN(C(=O)c1cccc(C(F)(F)F)c1)C1(C(=O)Nc2ccccc2)CCN(C(C)C)CC1 11.2 µM [inhibitor, partial curve, poor fit]
Fc1ccc(Nc2nc(Oc3ccccc3F)nc(N3CCCC3)n2)cc1 10 µM [inhibitor, single point]
CCc1ccc(C(=O)C(C)OC(=O)Cc2n[nH]c(=O)c3ccccc23)cc1 (centres undefined) 4.47 µM [inhibitor, full curve, poor fit]
S=c1[nH]nc(-c2cc(-c3ccccc3)n[nH]2)n1/N=C/C(Br)=C/c1ccccc1 28.2 µM [inhibitor, single point]
CCn1nc(C)c2c(-c3ccccc3)cc(=O)n(C(C)C(=O)NCc3ccccc3OC)c21 (centres undefined) 12.6 µM [inhibitor, partial curve, poor fit]
CCc1cccc(CC)c1NC(=S)NCc1ccc2c(c1)OCO2 22.4 µM [inhibitor, single point]
COc1ccc(NC(=O)NNC(=O)C(C)Oc2ccc3ccccc3c2)cc1OC (centres undefined) 11.2 µM [inhibitor, single point]
CC(=O)N1CCOc2ccc(S(=O)(=O)N3CCN(c4cccc(C(F)(F)F)c4)CC3)cc21 11.2 µM [inhibitor, single point]
CN(C)c1cccc(C(=O)Nc2cccc(F)c2)c1 28.2 µM [inhibitor, single point]
CCn1c2ccccc2c2cc(N=C3SC(CC(=O)Nc4ccccc4)C(=O)N3C)ccc21 (centres undefined) 2 µM [inhibitor, full curve]
CC1(Cc2ccc(Cl)cc2)C(=O)Nc2ccc(-c3cccnc3)cc21 (centres undefined) 5.01 µM [inhibitor, full curve, poor fit]
COc1ccccc1-c1csc(C(O)(c2ccccc2)C(F)(F)F)n1 (centres undefined) 22.4 µM [inhibitor, single point]
CN(C)CCNc1nc2sc3c(c2c(=O)n1-c1ccc(F)cc1)CCCCC3 12.6 µM [inhibitor, partial curve, poor fit]
CCOC(=O)N1CCN(Cc2nc3cc(NC(=O)c4cccc(C)c4)ccc3n2C(C)C)CC1 0.891 µM [inhibitor, full curve, poor fit]
CN(Cc1cccc2cnccc12)C(=O)c1cc(COc2ccc(F)cc2Cl)on1 11.2 µM [inhibitor, partial curve, poor fit]
COc1cccc(NC(=O)Cn2cc(S(=O)(=O)Cc3ccccc3F)c3ccccc32)c1 22.4 µM [inhibitor, single point]
CCN(CC)c1nc(C)c(C(=S)Nc2cc([N+](=O)[O-])ccc2Cl)s1 11.2 µM [inhibitor, partial curve, poor fit]
NS(=O)(=O)c1ccc(CCNC(=O)c2cc(-c3cc(Cl)ccc3O)n[nH]2)cc1 7.94 µM [inhibitor, partial curve, poor fit]
Cc1ccc(C(=O)N(CC(=O)NC2CCCC2)c2cccc(F)c2)s1 10 µM [inhibitor, partial curve, poor fit]
CN(C(=S)NC(=O)Cc1ccccc1)c1ccccc1 12.6 µM [inhibitor, partial curve, poor fit]
CCOC(=O)c1ccc(NC(=O)NC2CC3CCC(C2)N3Cc2nnnn2Cc2ccco2)cc1 (centres undefined) 2.51 µM [inhibitor, full curve]
CC1(C(=O)NS(=O)(=O)c2cccc(F)c2)CCN1C(=O)Cc1ccc(-c2ccccc2)cc1 (centres undefined) 28.2 µM [inhibitor, single point]
COc1cc(C2(c3ccc(O)c(OC)c3)C(=O)Nc3c(Br)cc(Br)cc32)ccc1O 14.1 µM [inhibitor, single point]
CCCCOc1ccc(C(=O)N(Cc2ccco2)C2CCS(=O)(=O)C2)cc1 (centres undefined) 11.2 µM [inhibitor, single point]
CC(C)Cc1ccc(CN2C(C(C)C)C(=O)N(Cc3cn(CCC4OCCO4)nn3)CCS2(=O)=O)cc1 (centres undefined) 12.6 µM [inhibitor, single point]
Cc1cccc(CNC(=O)c2ccc3c(c2)c(C)c(C)n3Cc2ccccc2)c1 12.6 µM [inhibitor, single point]
Fc1ccc(-n2ncc3c(Nc4cccc(Cl)c4)ncnc32)cc1 10 µM [inhibitor, partial curve]
CCCc1nn(C)c(C(=O)Nc2cccc(Cl)c2)c1Cl 5.01 µM [inhibitor, full curve, poor fit]
CCOC(=O)c1ccc(S(=O)(=O)NCCNCc2ccccc2)cc1 11.2 µM [inhibitor, single point]
COc1cccc(N2CCN(C(=O)CCNS(=O)(=O)c3ccc(F)c(F)c3)CC2)c1 22.4 µM [inhibitor, partial curve, poor fit]
Cc1ccc(OCC(=O)Nc2ccc3c(c2)nc(CCN2CCCCC2)n3C)cc1 28.2 µM [inhibitor, single point]
Cc1cccc(OCCC(=O)Nc2ccc(F)c(F)c2)c1 28.2 µM [inhibitor, single point]
COc1ccc(NC(=O)C(=O)NCCN2CCN(C(=O)C(c3ccccc3)c3ccccc3)CC2)cc1 5.62 µM [inhibitor, partial curve, poor fit]
COc1cccc(/C=N/NC(N)=S)c1OCc1cccc(Cl)c1 12.6 µM [inhibitor, partial curve, poor fit]
CO/N=C(\Cn1ncc(NC2CCCCC2)c(Br)c1=O)c1ccc(Cl)cc1 7.08 µM [inhibitor, partial curve, poor fit]

Activity change, negative = inhibition, inactive:
Cc1ccc(NC(=O)c2oc3ccccc3c2NC(=O)Cc2ccccc2)cc1 0.0279%
CCOc1ccc(CNC(=O)C2CCN(c3nnc(-n4c(C)ccc4C)s3)CC2)cc1 -6.76%
COc1ccc(-c2cn(-c3ccccc3)c(=S)[nH]2)cc1OC 14.4%
CC1(C)CC2CC(C)(CN2C(=O)NC(=O)c2ccccc2)C1 (centres undefined) 9.69%
COc1ccc(-n2c(=S)[nH]c3c(sc(=S)n3-c3ccccc3)c2=O)c(OC)c1 -11.3% [at 0.307 µM]
CCOc1ccccc1CNc1nc2nc3c(c(=O)n2[nH]1)CCC3 2.96%
O=C(COC(=O)C1CCN(S(=O)(=O)c2cccc3cccnc23)CC1)c1ccc(F)cc1 4.75%
C=CCn1cc(-c2ccc(Cl)cc2)cc(C#N)c1=O 0.0578%
COc1cc(OC)cc(-c2nc3nc(C)c(CCC(=O)Nc4ccc(C)cc4C)c(C)n3n2)c1 8.26%
COc1ccc2c(c1)Sc1ccccc1N2 -11.9%
COc1ccc(NC(=O)Nc2ccc3c(c2)CCC3)cc1OC -6.21%
COc1ccccc1NC(=O)Cn1c(=O)c(CNc2ccccc2)cc2cc(OC)c(OC)cc21 6.37%
CCCCN1C(=O)NC(c2cccc([N+](=O)[O-])c2)C(C(=O)OCC)=C1C (centres undefined) -9.98%
O=C(O[C@@H]1OC2COC(=O)c3cc(O)c(O)c(O)c3-c3c(cc(O)c(O)c3O)C(=O)O[C@@H]([C@H]1O)[C@@H]2O)c1cc(O)c(O)c(O)c1 -6.12%
CCOC(=O)N(C)C[C@@H]1OCc2cnnn2CCCC(=O)N([C@H](C)CO)C[C@H]1C 9.64%
O=C(Nc1nnc(-c2ccccc2F)s1)c1ccccc1F 42.3%
Cc1cc(N2CCC(C(=O)N(CC(C)C)CC(C)C)CC2)n2nc(C)c(-c3ccc(Cl)cc3)c2n1 11.4%
O=C(c1nc2n(n1)C(c1ccc(Cl)cc1)C=C(c1ccccc1)N2)N1CCOCC1 (centres undefined) -27.5%
